Reference: a collection of fitness landscapes (doi:10.1038/s41467-024-54723-y)
Over roughly 18,000 sequences, “TetR repression strength (sort-seq, GFP reporter)” has its median near 0.23; the highest 2% begin near 0.68. The list shows a part of the results.

molecular target: TetR (class B, Tn10) (UniProt P04483); assay: TetR repression strength (sort-seq, GFP reporter) (relative to tetO2 = 1); higher = stronger repression; conditions: E. coli
Summary of the method: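 E. coli SIG10-MAX carried a low-copy plasmid library with eight randomized operator positions between a constitutive promoter and sfGFP, with TetR constitutively expressed. Cells grew 5 h at 37 °C in LB with 50 µg/mL chloramphenicol, then 10^6 cells were FACS-sorted into 13 fluorescence bins, each Illumina-sequenced. Repression strength is the top bin index plus one minus the read-weighted mean bin, divided by the wild-type operator value. Three independent transformations; variants with ≥30 reads in all replicates and CV ≤0.5 were averaged.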

Sequence of UniProt P04483 (P04483 whole entry): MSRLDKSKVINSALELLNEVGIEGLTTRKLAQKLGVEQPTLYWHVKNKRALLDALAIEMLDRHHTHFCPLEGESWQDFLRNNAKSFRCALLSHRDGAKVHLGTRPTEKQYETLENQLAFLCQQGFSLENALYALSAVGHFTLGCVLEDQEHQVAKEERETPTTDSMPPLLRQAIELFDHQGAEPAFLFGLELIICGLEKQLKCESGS

Row | Sequence | TetR repression strength
1 | TCCCACAGAGTTAATGAGA | 0.19
2 | TCCCTTATAGTGGCTGAGA | 0.372
3 | TCCCTGCTAGTTCGTGAGA | 0.396
4 | TCCCCCTAAGTAGCTGAGA | 0.333
5 | TCCCGACGAGTACGAGAGA | 0.0802
6 | TCCCGTGTAGTCATGGAGA | 0.316
7 | TCCCCGTGAGTGTGTGAGA | 0.184
8 | TCCCTGAAAGTGGTAGAGA | 0.142
9 | TCCCAAGAAGTTGGCGAGA | 0.335
10 | TCCCGAGGAGTGGGCGAGA | 0.165
11 | TCCCACTTAGTTTGGGAGA | 0.212
12 | TCCCGGACAGTTGTAGAGA | 0.216
13 | TCCCTTCAAGTTAGTGAGA | 0.315
14 | TCCCGGCTAGTTGGGGAGA | 0.168
15 | TCCCGGGAAGTAGTGGAGA | 0.361
16 | TCCCCTAAAGTCCTCGAGA | 0.409
17 | TCCCATCTAGTGTGTGAGA | 0.253
18 | TCCCTGATAGTAGTAGAGA | 0.0256
19 | TCCCTCGGAGTAAGTGAGA | 0.228
20 | TCCCACCAAGTCGAAGAGA | 0.227
21 | TCCCGTGTAGTTATGGAGA | 0.138
22 | TCCCAGCAAGTTAAGGAGA | 0.173
23 | TCCCAGACAGTATATGAGA | 0.205
24 | TCCCTCGAAGTCAATGAGA | 0.24
25 | TCCCAGCGAGTCTGAGAGA | 0.281
26 | TCCCACTTAGTATTTGAGA | 0.207

Row | Sequence | TetR repression strength
27 | TCCCTTAAAGTATTAGAGA | 0.252
28 | TCCCGCAGAGTCACTGAGA | 0.173
29 | TCCCGTCCAGTGTCGGAGA | 0.0239
30 | TCCCCGGTAGTGGCCGAGA | 0.201
31 | TCCCTGGTAGTGGCAGAGA | 0.136
32 | TCCCGACTAGTGGCGGAGA | 0.0984
33 | TCCCGATAAGTGCCCGAGA | 0.321
34 | TCCCGAAGAGTGATCGAGA | 0.262
35 | TCCCGTATAGTGTTCGAGA | 0.0287
36 | TCCCGTCGAGTTGGCGAGA | 0.3
37 | TCCCAATGAGTGGGTGAGA | 0.326
38 | TCCCAACGAGTAGTAGAGA | 0.306
39 | TCCCAGTGAGTAGTGGAGA | 0.173
40 | TCCCGATCAGTGCATGAGA | 0.353
41 | TCCCAGCGAGTTCTGGAGA | 0.222
42 | TCCCGCACAGTTTGTGAGA | 0.21
43 | TCCCGTGAAGTGCTGGAGA | 0.113
44 | TCCCACGGAGTTGGAGAGA | 0.023
45 | TCCCTTGAAGTACGGGAGA | 0.148
46 | TCCCGGAGAGTGGAAGAGA | 0.278
47 | TCCCGGATAGTCGATGAGA | 0.199
48 | TCCCACAGAGTAGATGAGA | 0.171
49 | TCCCACCAAGTCAATGAGA | 0.943
50 | TCCCTGAAAGTGTTTGAGA | 0.227
51 | TCCCGGTGAGTGCTAGAGA | 0.495
52 | TCCCGGGGAGTGATCGAGA | 0.28

Row | Sequence | TetR repression strength
53 | TCCCGGAGAGTATACGAGA | 0.192
54 | TCCCAGCGAGTTATGGAGA | 0.0727
55 | TCCCTAGGAGTTGGAGAGA | 0.432
56 | TCCCTTTGAGTACATGAGA | 0.121
57 | TCCCAATGAGTCCAGGAGA | 0.25
58 | TCCCTTTTAGTAGTGGAGA | 0.167
59 | TCCCCGACAGTAAATGAGA | 0.178
60 | TCCCGCACAGTCGGCGAGA | 0.164
61 | TCCCAACGAGTGTGAGAGA | 0.318
62 | TCCCCGCAAGTTAGAGAGA | 0.198
63 | TCCCACTAAGTTAAGGAGA | 0.203
64 | TCCCTTCCAGTCCTAGAGA | 0.24
65 | TCCCAAATAGTCGCGGAGA | 0.285
66 | TCCCGGGTAGTTCGTGAGA | 0.0847
67 | TCCCGCGCAGTTCACGAGA | 0.218
68 | TCCCGCCTAGTCCTAGAGA | 0.647
69 | TCCCTGTAAGTTAGGGAGA | 0.191
70 | TCCCGCATAGTTAAGGAGA | 0.402
71 | TCCCGATTAGTATTGGAGA | 0.304
72 | TCCCATATAGTAACGGAGA | 0.276
73 | TCCCCTTAAGTACGCGAGA | 0.297
74 | TCCCGACCAGTGACAGAGA | 0.644
75 | TCCCGATCAGTGATGGAGA | 0.482
76 | TCCCGAAGAGTGTGTGAGA | 0.35
77 | TCCCGAGGAGTGCCAGAGA | 0.547
78 | TCCCGAATAGTGATGGAGA | 0.295

Row | Sequence | TetR repression strength
79 | TCCCCTCTAGTGGCCGAGA | 0.17
80 | TCCCAGAAAGTTCTAGAGA | 0.329
81 | TCCCAGCTAGTGCTAGAGA | 0.33
82 | TCCCGTGTAGTTCTCGAGA | 0.0552
83 | TCCCTATTAGTCTTAGAGA | 0.389
84 | TCCCTTGTAGTGATCGAGA | 0.4
85 | TCCCGAAGAGTCTTAGAGA | 0.279
86 | TCCCACACAGTTCAGGAGA | 0.205
87 | TCCCAAAGAGTTGTGGAGA | 0.266
88 | TCCCGATTAGTTCTCGAGA | 0.223
89 | TCCCGGTTAGTTAGGGAGA | 0.229
90 | TCCCTCGGAGTAGCAGAGA | 0.0942
91 | TCCCAGAGAGTTTGTGAGA | 0.43
92 | TCCCTCGGAGTCAGAGAGA | 0.181
93 | TCCCTTCAAGTCAATGAGA | 0.311
94 | TCCCTGGGAGTGGGTGAGA | 0.211
95 | TCCCTGTGAGTATCCGAGA | 0.213
96 | TCCCTATAAGTTCCGGAGA | 0.037
97 | TCCCGGAGAGTGCCCGAGA | 0.102
98 | TCCCGGACAGTGAGCGAGA | 0.459
99 | TCCCATCGAGTCAGTGAGA | 0.37
100 | TCCCGATAAGTTCTGGAGA | 0.217
101 | TCCCGCTTAGTGGGCGAGA | 0.184
102 | TCCCGGCAAGTTCAAGAGA | 0.409
